From the supplement of paper PMC8728848
The list shows a part of the results.

Tests used:
Assay in all cases: glycan array binding signal (z-score within array); higher = stronger binding
Conditions in all cases: glycan notation: IUPAC condensed, linker removed
[1] = molecular target: Gal(b1-3)GlcNAc(b1-2)Man(a1-3)[GlcNAc(b1-4)][Gal(b1-3)GlcNAc(b1-2)Man(a1-6)]Man(b1-4)GlcNAc(b1-4)GlcNAc
How it was run: (§1)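 Glycan array binding is given as a within-array Z-score, which can be read as non-binding when negative. The arrays, 3228 of them, came from the Consortium for Functional Glycomics database and were retained only where the protein sequence was available. Z-scores were averaged across arrays of the same protein sequence at different concentrations or buffers and across linkers.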

[2] = molecular target: Gal(b1-3)GlcNAc(b1-2)[Gal(b1-3)GlcNAc(b1-6)]Man(a1-6)[Gal(b1-3)GlcNAc(b1-2)Man(a1-3)]Man(b1-4)GlcNAc(b1-4)GlcNAc
How it was run: as §1

[3] = molecular target: Gal(b1-3)GlcNAc(b1-3)Gal(b1-3)GlcNAc
How it was run: as §1

[4] = molecular target: Gal(b1-3)GlcNAc(b1-3)Gal(b1-4)Glc
How it was run: as §1

[5] = molecular target: Gal(b1-3)GlcNAc(b1-3)Gal(b1-4)GlcNAc
How it was run: as §1

[6] = molecular target: Gal(b1-3)GlcNAc(b1-3)Gal(b1-4)GlcNAc(b1-6)[Gal(b1-3)GlcNAc(b1-3)]Gal(b1-4)Glc
How it was run: as §1

[7] = molecular target: Gal(b1-3)GlcNAc(b1-3)Gal(b1-4)[Fuc(a1-3)]GlcNAc(b1-6)[Gal(b1-3)GlcNAc(b1-3)]Gal(b1-4)Glc
How it was run: as §1

[8] = molecular target: Gal(b1-3)GlcNAc(b1-3)GalNAc
How it was run: as §1

[9] = molecular target: Gal(b1-3)GlcNAc(b1-6)Gal(b1-4)GlcNAc
How it was run: as §1

[10] = molecular target: Gal(b1-3)GlcNAc(b1-6)GalNAc
How it was run: as §1

Gal(b1-3)GlcNAc6S = molecular target: Gal(b1-3)GlcNAc6S
How it was run: as §1

[11] = molecular target: Gal(b1-3)[Fuc(a1-4)]GlcNAc
How it was run: as §1

[12] = molecular target: Gal(b1-3)[Fuc(a1-4)]GlcNAc(b1-2)Man(a1-3)[Gal(b1-3)[Fuc(a1-4)]GlcNAc(b1-2)Man(a1-6)]Man(b1-4)GlcNAc(b1-4)[Fuc(a1-6)]GlcNAc
How it was run: as §1

[13] = molecular target: Gal(b1-3)[Fuc(a1-4)]GlcNAc(b1-3)Gal(b1-3)[Fuc(a1-4)]GlcNAc
How it was run: as §1

[14] = molecular target: Gal(b1-3)[Fuc(a1-4)]GlcNAc(b1-3)Gal(b1-4)GlcNAc
How it was run: as §1

[15] = molecular target: Gal(b1-3)[Fuc(a1-4)]GlcNAc(b1-3)Gal(b1-4)[Fuc(a1-3)]GlcNAc
How it was run: as §1

[16] = molecular target: Gal(b1-3)[Fuc(a1-4)]GlcNAc(b1-6)GalNAc
How it was run: as §1

[17] = molecular target: Gal(b1-3)[GlcNAc(b1-6)]GalNAc
How it was run: as §1

[18] = molecular target: Gal(b1-3)[Neu5Ac(a2-6)]GalNAc
How it was run: as §1

[19] = molecular target: Gal(b1-3)[Neu5Ac(a2-6)]GlcNAc(b1-6)Gal(b1-4)Glc
How it was run: as §1

[20] = molecular target: Gal(b1-3)[Neu5Ac(b2-6)]GalNAc
How it was run: as §1

Gal(b1-4)Gal = molecular target: Gal(b1-4)Gal
How it was run: as §1

[21] = molecular target: Gal(b1-4)GalNAc(a1-3)[Fuc(a1-2)]Gal(b1-4)GlcNAc
How it was run: as §1

[22] = molecular target: Gal(b1-4)GalNAc(b1-3)[Fuc(a1-2)]Gal(b1-4)GlcNAc
How it was run: as §1

Gal(b1-4)Glc = molecular target: Gal(b1-4)Glc
How it was run: as §1

Gal(b1-4)Glc6S = molecular target: Gal(b1-4)Glc6S
How it was run: as §1

Gal(b1-4)GlcNAc = molecular target: Gal(b1-4)GlcNAc
How it was run: as §1

[23] = molecular target: Gal(b1-4)GlcNAc(a1-6)Gal(b1-4)GlcNAc
How it was run: as §1

Gal(b1-4)GlcNAc(b1-2)Man = molecular target: Gal(b1-4)GlcNAc(b1-2)Man
How it was run: as §1

[24] = molecular target: Gal(b1-4)GlcNAc(b1-2)Man(a1-3)Man(b1-4)GlcNAc(b1-4)GlcNAc
How it was run: as §1

[25] = molecular target: Gal(b1-4)GlcNAc(b1-2)Man(a1-3)[Gal(b1-4)GlcNAc(b1-2)Man(a1-6)]Man(b1-4)GlcNAc(b1-4)GlcNAc
How it was run: as §1

[26] = molecular target: Gal(b1-4)GlcNAc(b1-2)Man(a1-3)[Gal(b1-4)GlcNAc(b1-2)Man(a1-6)]Man(b1-4)GlcNAc(b1-4)[Fuc(a1-6)]GlcNAc
How it was run: as §1

[27] = molecular target: Gal(b1-4)GlcNAc(b1-2)Man(a1-3)[Gal(b1-4)GlcNAc(b1-2)][GlcNAc(b1-4)]Man(b1-4)GlcNAc(b1-4)GlcNAc
How it was run: as §1

[28] = molecular target: Gal(b1-4)GlcNAc(b1-2)Man(a1-3)[GlcNAc(b1-2)Man(a1-6)]Man(b1-4)GlcNAc(b1-4)GlcNAc
How it was run: as §1

[29] = molecular target: Gal(b1-4)GlcNAc(b1-2)Man(a1-3)[Man(a1-6)]Man(b1-4)GlcNAc(b1-4)GlcNAc
How it was run: as §1

[30] = molecular target: Gal(b1-4)GlcNAc(b1-2)Man(a1-6)Man(b1-4)GlcNAc(b1-4)GlcNAc
How it was run: as §1

[31] = molecular target: Gal(b1-4)GlcNAc(b1-2)Man(a1-6)[GlcNAc(b1-2)Man(a1-3)]Man(b1-4)GlcNAc(b1-4)GlcNAc
How it was run: as §1

[32] = molecular target: Gal(b1-4)GlcNAc(b1-2)Man(a1-6)[Man(a1-3)]Man(b1-4)GlcNAc(b1-4)GlcNAc
How it was run: as §1

B1: Gal 8 (Homo sapiens), O00214_1 (protein)
chain: MMLSLNNLQNIIYNPVIPFVGTIPDQLDPGTLIVIRGHVPSDADRFQVDLQNGSSMKPRADVAFHFNPRFKRAGCIVCNTLINEKWGREEITYDTPFKREKSFEIVIMVLKDKFQVAVNGKHTLLYGHRIGPEKIDTLGIYGKVNIHSIGFSFSSDLQSTQASSLELTEISRENVPKSGTPQLRLPFAARLNTPMGPGRTVVVKGEVNANAKSFNVDLLAGKSKDIALHLNPRLNIKAFVRNSFLQESWGEEERNITSFPFSPGMYFEMIIYCDVREFKVAVNGVHSLEYKHRFKELSSIDTLEINGDIHLLEVRSW
- glycan array binding signal (z-score) [1]: -0.104
- glycan array binding signal (z-score) [2]: 0.178
- glycan array binding signal (z-score) [3]: 0.531
- glycan array binding signal (z-score) [4]: 0.084
- glycan array binding signal (z-score) [5]: -0.066
- glycan array binding signal (z-score) [6]: 0.498
- glycan array binding signal (z-score) [7]: 0.338
- glycan array binding signal (z-score) [8]: -0.235
- glycan array binding signal (z-score) [9]: -0.184
- glycan array binding signal (z-score) [10]: -0.2
- glycan array binding signal (z-score) (Gal(b1-3)GlcNAc6S): 0.487
- glycan array binding signal (z-score) [11]: -0.191
- glycan array binding signal (z-score) [12]: -0.173
- glycan array binding signal (z-score) [13]: -0.099
- glycan array binding signal (z-score) [14]: -0.181
- glycan array binding signal (z-score) [15]: -0.12
- glycan array binding signal (z-score) [16]: -0.11
- glycan array binding signal (z-score) [17]: -0.186
- glycan array binding signal (z-score) [18]: -0.22
- glycan array binding signal (z-score) [19]: -0.169
- glycan array binding signal (z-score) [20]: -0.255
- glycan array binding signal (z-score) (Gal(b1-4)Gal): -0.099
- glycan array binding signal (z-score) [21]: 0.79
- glycan array binding signal (z-score) [22]: -0.231
- glycan array binding signal (z-score) (Gal(b1-4)Glc): -0.238
- glycan array binding signal (z-score) (Gal(b1-4)Glc6S): -0.209
- glycan array binding signal (z-score) (Gal(b1-4)GlcNAc): -0.219
- glycan array binding signal (z-score) [23]: -0.226
- glycan array binding signal (z-score) (Gal(b1-4)GlcNAc(b1-2)Man): -0.163
- glycan array binding signal (z-score) [24]: -0.202
- glycan array binding signal (z-score) [25]: -0.278
- glycan array binding signal (z-score) [26]: -0.211
- glycan array binding signal (z-score) [27]: -0.238
- glycan array binding signal (z-score) [28]: -0.191
- glycan array binding signal (z-score) [29]: 0.003
- glycan array binding signal (z-score) [30]: -0.185
- glycan array binding signal (z-score) [31]: -0.23
- glycan array binding signal (z-score) [32]: -0.25
